Laboratory results reported in PubChem BioAssay AID2451 (National Center for Advancing Translational Sciences (NCATS), 2010).
In all, about 290,000 compounds went through this assay and about 2,100 (0.72%) were called active. The shares of active, inactive and inconclusive entries below differ from those in the screen. The call rests on the fitted dose curve; in most records, active means well fitted inhibition curve with a large enough effect; inconclusive means small, poorly fitted or top-dose-only effect, or effect the other way; inactive means flat fitted curve, though single readings scatter. Where the call is inconclusive, the potency comes from a doubtful curve fit.

target: Fructose-bisphosphate aldolase (Giardia intestinalis (strain ATCC 50803 / WB clone C6)) (UniProt A8B2U2); test: qHTS Assay for Inhibitors of Fructose-1,6-bisphosphate Aldolase from Giardia Lamblia; conditions: purified Giardia FBPA; activity, negative = inhibition: at 59.6 µM (top of the series) unless noted; further: nearly all actives have a fitted effect of over 55% in size
Summary of the method: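 Giardia FBPA (40 nM reagent) was preincubated 10 min at RT with compound (up to 57.5 uM final), then substrate plus GAPDH/TPI/NAD/arsenate coupling system with diaphorase/resazurin was added; resorufin fluorescence (525/598 nm) was read after 20 min.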
On the % scale 0 is the no-effect control and ±100 the full control effect; potency means the concentration at half of the fitted maximal effect; tags describe the fitted curve by direction and shape.

Sequence of UniProt A8B2U2 (A8B2U2 whole entry, looked up): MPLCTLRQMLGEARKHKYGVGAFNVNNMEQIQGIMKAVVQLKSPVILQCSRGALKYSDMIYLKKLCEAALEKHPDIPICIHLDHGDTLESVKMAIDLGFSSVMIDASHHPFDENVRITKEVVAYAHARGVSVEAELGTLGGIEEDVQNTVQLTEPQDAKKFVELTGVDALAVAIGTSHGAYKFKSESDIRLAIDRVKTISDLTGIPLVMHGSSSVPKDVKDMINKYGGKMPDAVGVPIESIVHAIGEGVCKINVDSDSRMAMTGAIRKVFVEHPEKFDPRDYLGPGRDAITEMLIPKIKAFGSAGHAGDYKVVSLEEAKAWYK

Row | Compound | Potency | activity, negative = inhibition
1 | CC(C)[C@@H](CC(=O)N[C@@H]1CCNC[C@H]1C(=O)N[C@H](CC(=O)N[C@@H](CCC(=O)O)CC(=O)O)Cc1c[nH]c2ccccc12)NC(=O)C[C@H](CO)NC(=O)[C@@H]1CNCC[C@H]1N | inconclusive: 19.9 µM [inhibitor, single point] | 
2 | CC1CC(C)CN(S(=O)(=O)c2cc(C(=O)O)c(Cl)s2)C1 (stereo not drawn) | inconclusive: 22.3 µM [activator, partial curve] | 
3 | COC(=O)c1sc(-c2ccc(Cl)cc2)cc1N |  | inactive: -4.45%
4 | N=c1scc(-c2ccccc2)n1/N=C/c1ccco1 |  | inactive: -16.1%
5 | Cn1c(=O)c2c([nH]c(=S)n2CCCc2ccccc2)n(C)c1=O | active: 10 µM | 
6 | O=c1c2cc(-c3ccccc3)sc2ncn1-n1cccc1 |  | inactive: 1.88%
7 | Clc1cccc(Cl)c1CN1CCN(c2ccccc2)CC1 | inconclusive: 17.7 µM [inhibitor, single point] | 
8 | Clc1ccccc1OCCCn1ccnc1 | inconclusive: 25.1 µM [inhibitor, single point] | 
9 | CN(C)c1nc(NS(=O)(=O)c2ccc(Cl)cc2)nc(N(C)C)n1 | inconclusive: 11.2 µM [inhibitor, partial curve] | 
10 | O=C(NC(=S)Nc1ccc(F)cc1)c1ccc2c(c1)OCCO2 |  | inactive: -5.51%
11 | COc1ccc(NC(=O)C2=C(C)NC(=S)NC2c2ccc(O)c(OC)c2)cc1 (stereo not drawn) |  | inactive: -5.84%
12 | Cc1ccc2sc(NNC(=O)c3cc(=O)c4ccccc4o3)nc2c1C | active: 22.3 µM | 
13 | COc1ccc2nc(-c3ccco3)c(-c3ccco3)nc2c1 | inconclusive: 3.97 µM [inhibitor, partial curve] | 
14 | O=C(Nc1ccc(Cl)cc1)N(CCCN1CCOCC1)Cc1cccs1 |  | inactive: 0.23%
15 | Cc1cccc(C)c1NC(=O)CSc1nc2c([nH]1)c(=O)n(C)c(=O)n2C | inconclusive: 11.2 µM [inhibitor, single point] | 
16 | NC(=S)c1cn(C2OC(CO)C(O)C2O)c2ncnc(N)c12 (stereo not drawn) | active: 14.1 µM | 
17 | CCCCCOC(=O)Nc1nnc(CCC)s1 |  | inactive: 14.9%
18 | Cn1cccc1C1C(C#N)=C(N)OC2=C1C(=O)CCC2 (stereo not drawn) | inconclusive: 15.8 µM [inhibitor, partial curve] | 
19 | CC(=O)Nc1cccc(NC(=S)Nc2ccc(F)cc2F)c1 | inconclusive: 15.8 µM [inhibitor, partial curve] | 
20 | Cc1cc(NC(=O)c2ccccc2)n(-c2nc3ccccc3[nH]2)n1 |  | inactive: -22.2%
21 | Cc1cc(C)c(OCCCCN(C)Cc2ccccc2)c(C)c1 | inconclusive: 11.2 µM [inhibitor, partial curve] | 
22 | CCN(CC)CCCNC(=O)c1cc(-c2ccccc2)c(N2CCCCC2)s1 |  | inactive: 5.14%
23 | Cc1ccc2ccc3ccc(C)nc3c2n1 | inconclusive: 35.5 µM [activator, single point] | 

Row | Compound | Potency | activity, negative = inhibition
24 | O=C1C=C(Nc2ccccc2)c2ccccc2C1=O | inconclusive: 4.46 µM [inhibitor, partial curve] | 
25 | Cc1nc(N2CCC(C)CC2)c2c(C)c(C(=O)O)sc2n1 | inconclusive: 19.9 µM [activator, single point] | 
26 | Cc1ccc(CN(Cc2ccco2)C(=S)NCC(=O)NCc2cccnc2)cc1 | inconclusive: 17.7 µM [inhibitor, single point] | 
27 | CN1CCc2c(sc(N)c2C(=O)O)C1 | inconclusive: 15.8 µM [inhibitor, single point] | 
28 | Cc1ccsc1C=Nc1ccc(O)cc1 | active: 5.61 µM | 
29 | O=C(Cc1ccc(F)cc1)N/N=C/c1ccc(-c2ccc(Cl)c(C(=O)O)c2)o1 | inconclusive: 19.9 µM [activator, partial curve] | 
30 | Nc1ccc2nc(CCCO)[nH]c2c1 | inconclusive: 7.92 µM [inhibitor, partial curve] | 
31 | Cc1ccnc(NC(=S)NC(=O)c2cncc(Br)c2)c1 | inconclusive: 3.54 µM [inhibitor, full curve] | 
32 | CCn1c(-c2cc(-c3cc(C)ccc3C)nc3ccccc23)n[nH]c1=S |  | inactive: 19.2%
33 | CC(=O)OCCn1c2nc(=O)[nH]c(=O)c-2nc2cc(C)c(C)cc21 | inconclusive: 5 µM [inhibitor, partial curve] | 
34 | Cc1ccc(-c2nnc(SCC(=O)N/N=C/c3ccccc3C(=O)O)n2-c2ccc(Cl)cc2)cc1 | inconclusive: 22.3 µM [activator, partial curve] | 
35 | CCOc1ccc2[nH]c(=O)c(C(c3nnnn3Cc3ccco3)N3CCCC(C)C3)cc2c1 (stereo not drawn) | inconclusive: 17.7 µM [inhibitor, single point] | 
36 | CN(C(=O)CC1C(=O)NCCN1Cc1c(F)cccc1Cl)C1CCOCC1 (stereo not drawn) | inconclusive: 17.8 µM [inhibitor, partial curve] | 
37 | Cc1ccccc1N/C(=C(/C(Cl)=C(Cl)Cl)[N+](=O)[O-])n1nnc2ccccc21 | inconclusive: 25.1 µM [inhibitor, single point] | 
38 | CNC(=O)COC(=O)c1cc(-c2ccco2)nc2ccccc12 | inconclusive: 17.7 µM [inhibitor, single point] | 
39 | Nc1ccc(-c2ccc3ccccc3n2)cc1 | inconclusive: 22.3 µM [inhibitor, single point] | 
40 | COC(=O)c1ccccc1NC(=O)c1ccc(COc2cccc3ccccc23)o1 | inconclusive: 31.5 µM [inhibitor, single point] | 
41 | COc1cc(/C=N/NC(=S)Nc2cccc(C(=O)O)c2)cc(OC)c1OC | inconclusive: 3.97 µM [inhibitor, full curve, poor fit] | 
42 | CC(C)c1ccc2c(c1)C1(NN=C(c3ccccc3)S1)C(=O)N2 (stereo not drawn) | inconclusive: 17.7 µM [inhibitor, single point] | 
43 | CCOC(=O)c1c(-c2ccc(C)o2)csc1N | inconclusive: 2.23 µM [inhibitor, full curve] | 
44 | COC(=O)[C@@]1(Cc2ccccc2)[C@H]2c3cc(C(=O)N(C)C)n(CCN4CNCC4=O)c3C[C@H]2CN1C(=O)c1ccccc1 |  | inactive: -22.4%
45 | Cc1ccsc1C(=O)NNC(=O)C1CCCCC1C(=O)O (stereo not drawn) |  | inactive: 4.06%
46 | O=C(CC(=O)N/N=C/c1c(F)cccc1Cl)NCc1ccccc1 | inconclusive: 5 µM [inhibitor, single point] | 

Row | Compound | Potency | activity, negative = inhibition
47 | CC/C(=N\NC(=O)C(N)=O)c1ccccc1O | inconclusive: 9.98 µM [inhibitor, partial curve] | 
48 | Cc1ccc(OCC(=O)Nc2cccc(-c3nnc(-c4ccccc4)o3)c2)c(C)c1 |  | inactive: 4.53%
49 | Fc1ccc(OCc2nn[nH]n2)c(F)c1 | inconclusive: 28.2 µM [inhibitor, single point] | 
50 | N#CC1=C2SCN(c3ccccc3)CN2C(=O)CC1c1cccs1 (stereo not drawn) | inconclusive: 0.794 µM [inhibitor, full curve] | 
51 | CCN(/N=C/C=C/c1ccccc1)c1cc(=O)n(C)c(=O)[nH]1 | inconclusive: 12.6 µM [inhibitor, partial curve] | 
52 | CC(C)c1ccc(CNc2ncccn2)cc1 | inconclusive: 22.4 µM [inhibitor, partial curve, poor fit] | 
53 | CCCS(=O)(=O)c1c(S(=O)(=O)CCC)c2c(N)cccn2c1C(=O)c1ccccc1 | inconclusive: 15.8 µM [inhibitor, partial curve] | 
54 | O=C1CC(N2CCN(c3ccccn3)CC2)C(=O)N1c1ccc(F)cc1 (stereo not drawn) |  | inactive: 10.9%
55 | CNC(=S)Nc1cc(OC)ccc1OC | inconclusive: 14.1 µM [inhibitor, partial curve] | 
56 | COc1ccc(CCNCC(=O)Nc2ccc(C)c(S(=O)(=O)N(C)C)c2)cc1 | inconclusive: 19.9 µM [inhibitor, partial curve] | 
57 | CCCc1nc2ccccc2c(=O)n1/N=C/c1c(C)[nH]n(-c2ccc(C)cc2)c1=O | inconclusive: 31.5 µM [activator, single point] | 
58 | COC(=O)CC1C(=O)NCCN1C(=S)NC(=O)c1ccccc1[N+](=O)[O-] (stereo not drawn) | active: 7.06 µM | 
59 | C=C(CCC12O[C@H](C(=O)O)[C@@](O)(C(=O)O)[C@](C(=O)O)(O1)[C@H](OC(=O)/C=C/[C@@H](C)C[C@@H](C)CC)[C@H]2O)[C@@H](OC(C)=O)[C@H](C)Cc1ccccc1 | inconclusive: 9.98 µM [activator, partial curve] | 
60 | Cc1ccc(NC(=O)CCNS(=O)(=O)c2ccc3[nH]c(=O)oc3c2)cc1C | inconclusive: 20 µM [inhibitor, partial curve] | 
61 | COc1ccc(N2C(=O)NC(=O)/C(=C\c3ccc([N+](=O)[O-])s3)C2=O)cc1 | inconclusive: 15.8 µM [inhibitor, partial curve] | 
62 | CN1C[C@@H](C(=O)N[C@@]2(C)O[C@]3(O)C4CCCN4C(=O)[C@@H](Cc4ccccc4)N3C2=O)C=C2c3cccc4[nH]cc(c34)C[C@@H]21 (stereo partly drawn) | inconclusive: 5 µM [inhibitor, full curve] | 
63 | CN(C)CCNS(=O)(=O)c1ccc(N2CCc3ccccc32)c([N+](=O)[O-])c1 | inconclusive: 39.8 µM [inhibitor, partial curve, poor fit] | 
64 | CCN(CCO)c1ccc(-n2c(N)c(C(=O)OC)c3nc4ccccc4nc32)cc1 | inconclusive: 15.8 µM [inhibitor, partial curve] | 
65 | O=C(CCN1C(=O)/C(=C/c2ccccc2)SC1=S)Nc1cccnc1 |  | inactive: -5.89%
66 | CC1Cc2ccccc2N1Cc1cc(=O)n2ccsc2n1 (stereo not drawn) | inconclusive: 19.9 µM [inhibitor, partial curve] | 
67 | O=C(O)Cn1c(Cc2ccccc2)nc2ccccc21 | active: 28.2 µM | 
68 | FC(F)(F)c1cccc(CNC2c3ccccc3-c3ccccc32)c1 | inconclusive: 15.8 µM [inhibitor, partial curve] | 
